Measured values as given in publication PMC9806626.
No constants are given. Whether binding was seen depends on the method and setting. Some binding calls cover weakened binding; strength is not graded here. Sequences can lack the tags named with a protein.

Sequences of proteins named here, by UniProt entry; tags and fusion partners are left off.
UniProt P56757: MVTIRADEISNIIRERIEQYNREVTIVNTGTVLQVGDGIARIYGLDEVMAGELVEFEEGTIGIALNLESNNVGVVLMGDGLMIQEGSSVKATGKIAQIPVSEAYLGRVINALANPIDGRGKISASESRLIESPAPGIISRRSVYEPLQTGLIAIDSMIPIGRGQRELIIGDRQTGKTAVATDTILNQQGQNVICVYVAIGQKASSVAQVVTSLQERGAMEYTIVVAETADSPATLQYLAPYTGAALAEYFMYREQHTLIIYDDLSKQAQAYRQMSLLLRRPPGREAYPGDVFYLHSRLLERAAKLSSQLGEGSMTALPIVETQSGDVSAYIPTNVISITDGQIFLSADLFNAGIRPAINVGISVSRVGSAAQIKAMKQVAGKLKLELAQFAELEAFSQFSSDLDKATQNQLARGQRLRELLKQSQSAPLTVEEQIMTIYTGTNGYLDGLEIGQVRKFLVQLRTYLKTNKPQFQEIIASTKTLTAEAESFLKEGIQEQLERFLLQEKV
UniProt P19366: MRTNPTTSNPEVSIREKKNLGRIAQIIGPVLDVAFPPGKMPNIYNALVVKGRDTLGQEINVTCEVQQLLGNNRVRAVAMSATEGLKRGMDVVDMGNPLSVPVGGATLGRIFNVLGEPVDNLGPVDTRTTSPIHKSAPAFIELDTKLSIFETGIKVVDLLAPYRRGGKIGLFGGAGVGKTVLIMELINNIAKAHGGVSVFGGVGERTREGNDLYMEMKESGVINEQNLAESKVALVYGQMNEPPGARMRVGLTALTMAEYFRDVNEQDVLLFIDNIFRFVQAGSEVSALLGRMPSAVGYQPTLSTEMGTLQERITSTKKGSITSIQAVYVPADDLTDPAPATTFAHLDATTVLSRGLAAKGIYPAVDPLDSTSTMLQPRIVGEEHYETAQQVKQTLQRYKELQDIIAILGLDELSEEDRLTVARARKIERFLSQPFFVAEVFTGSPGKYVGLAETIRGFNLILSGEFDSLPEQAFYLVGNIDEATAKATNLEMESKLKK

T1: BD-AtCGL160N (AtCGL160 29–206 aa fused to the GAL4 DNA-binding domain) (Arabidopsis thaliana) (UniProt O82279)
T1 sequence: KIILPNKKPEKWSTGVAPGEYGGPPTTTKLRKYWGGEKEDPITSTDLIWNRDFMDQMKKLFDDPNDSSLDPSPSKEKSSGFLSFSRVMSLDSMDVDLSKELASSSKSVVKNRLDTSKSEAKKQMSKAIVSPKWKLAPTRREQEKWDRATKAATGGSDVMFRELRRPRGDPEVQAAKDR

T2: BD-AtCGL160N Δ135–160 (Arabidopsis thaliana) (UniProt O82279)
T2 sequence: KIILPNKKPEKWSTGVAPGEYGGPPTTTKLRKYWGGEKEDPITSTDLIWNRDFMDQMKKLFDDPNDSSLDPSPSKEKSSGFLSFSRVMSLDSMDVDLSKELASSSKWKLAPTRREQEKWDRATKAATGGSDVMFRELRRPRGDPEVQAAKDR

T3: BD-AtCGL160N Δ74–105 (Arabidopsis thaliana) (UniProt O82279)
T3 sequence: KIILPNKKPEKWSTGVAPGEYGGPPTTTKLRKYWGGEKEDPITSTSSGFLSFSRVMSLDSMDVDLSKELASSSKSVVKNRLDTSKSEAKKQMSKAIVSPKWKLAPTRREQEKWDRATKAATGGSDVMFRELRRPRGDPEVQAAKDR

T4: BD-AtCGL160N Δ106–134 (Arabidopsis thaliana) (UniProt O82279)
T4 sequence: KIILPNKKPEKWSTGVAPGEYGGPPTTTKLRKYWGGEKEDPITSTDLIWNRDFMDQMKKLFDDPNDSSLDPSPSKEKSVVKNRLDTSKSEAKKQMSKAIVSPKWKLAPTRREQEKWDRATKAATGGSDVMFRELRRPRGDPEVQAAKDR

T5: BD-AtCGL160N Δ29–73 (Arabidopsis thaliana) (UniProt O82279)
T5 sequence: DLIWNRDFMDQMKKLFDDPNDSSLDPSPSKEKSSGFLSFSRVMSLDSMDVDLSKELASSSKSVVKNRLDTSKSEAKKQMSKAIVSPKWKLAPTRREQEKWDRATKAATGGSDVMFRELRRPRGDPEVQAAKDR

T6: BD-AtCGL160N Δ161–206 (Arabidopsis thaliana) (UniProt O82279)
T6 sequence: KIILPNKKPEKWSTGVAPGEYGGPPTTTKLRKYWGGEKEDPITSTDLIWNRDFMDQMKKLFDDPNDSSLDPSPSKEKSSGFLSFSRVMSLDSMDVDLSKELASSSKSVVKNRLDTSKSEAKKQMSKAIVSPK


Assays:
Assay in all cases: two-hybrid; Matchmaker GAL4 system (Clontech), bait pGBKT7, prey pGADT7, yeast AH109; growth on SD -Leu/-Trp/-His/-Ade in serial dilutions
[1] = target: T1, BD-AtCGL160N (AtCGL160 29–206 aa fused to the GAL4 DNA-binding domain) (Arabidopsis thaliana)
[2] = target: T2, BD-AtCGL160N Δ135–160 (Arabidopsis thaliana)
[3] = target: T3, BD-AtCGL160N Δ74–105 (Arabidopsis thaliana)
[4] = target: T4, BD-AtCGL160N Δ106–134 (Arabidopsis thaliana)
[5] = target: T5, BD-AtCGL160N Δ29–73 (Arabidopsis thaliana)
[6] = target: T6, BD-AtCGL160N Δ161–206 (Arabidopsis thaliana)

Row | Molecule | binding [1] | binding [2] | binding [3] | binding [4] | binding [5] | binding [6]
1 | AD-CF1-α (from UniProt P56757 1-507) | no binding | – | – | – | – | –
2 | AD-CF1-β (from UniProt P19366 1-498) | binds | binds | no binding | binds | no binding | binds
3 | AD-CF1-ε (protein, UniProt P09468 1-132) MTLNLCVLTPNRIVWDSEVKEIILSTNSGQIGVLANHAPIATAVDIGILKIRLANQWLTMALMGGFARIGNNEITILVNDAEKNSDIDPQEAQQTLEIAEANLRKAEGKRQTIEANLALRRARTRVEALNTI | no binding | – | – | – | – | –
4 | AD-CFO-b (soluble domain, 51–184 aa) (domain or fragment, UniProt P56759 51-184) DLLDNRKQRILNTIRNSEELREGAIQQLENARARLRNVETEADKFRVNGYSEIEREKLNLINSTYKTLKQLENYKNETILFEQQRTINQVRERVFQQALQGAIGTLNSCLSNELHLRTINANIGMFGTMKEITD | no binding | – | – | – | – | –
